# Results as given in PubChem BioAssay AID504339 (National Center for Advancing Translational Sciences (NCATS), 2011).
# Screen size: about 390,000 compounds; about 17,000 (4.4%) were called active. Inconclusive results, whose numbers are uncertain, are shown with a selection of clear calls. Calls come from the whole dose curve; as a rule, active = well fitted inhibition curve with a large enough effect; inconclusive = small, poorly fitted or top-dose-only effect; inactive = no such curve, though single readings can be large or run the other way. Where the call is inconclusive, the potency comes from a doubtful curve fit.
# Biological target: Lysine-specific demethylase 4A (Homo sapiens) (UniProt O75164)
# Chain of UniProt O75164 (O75164 whole entry, looked up, the tested form may be a part): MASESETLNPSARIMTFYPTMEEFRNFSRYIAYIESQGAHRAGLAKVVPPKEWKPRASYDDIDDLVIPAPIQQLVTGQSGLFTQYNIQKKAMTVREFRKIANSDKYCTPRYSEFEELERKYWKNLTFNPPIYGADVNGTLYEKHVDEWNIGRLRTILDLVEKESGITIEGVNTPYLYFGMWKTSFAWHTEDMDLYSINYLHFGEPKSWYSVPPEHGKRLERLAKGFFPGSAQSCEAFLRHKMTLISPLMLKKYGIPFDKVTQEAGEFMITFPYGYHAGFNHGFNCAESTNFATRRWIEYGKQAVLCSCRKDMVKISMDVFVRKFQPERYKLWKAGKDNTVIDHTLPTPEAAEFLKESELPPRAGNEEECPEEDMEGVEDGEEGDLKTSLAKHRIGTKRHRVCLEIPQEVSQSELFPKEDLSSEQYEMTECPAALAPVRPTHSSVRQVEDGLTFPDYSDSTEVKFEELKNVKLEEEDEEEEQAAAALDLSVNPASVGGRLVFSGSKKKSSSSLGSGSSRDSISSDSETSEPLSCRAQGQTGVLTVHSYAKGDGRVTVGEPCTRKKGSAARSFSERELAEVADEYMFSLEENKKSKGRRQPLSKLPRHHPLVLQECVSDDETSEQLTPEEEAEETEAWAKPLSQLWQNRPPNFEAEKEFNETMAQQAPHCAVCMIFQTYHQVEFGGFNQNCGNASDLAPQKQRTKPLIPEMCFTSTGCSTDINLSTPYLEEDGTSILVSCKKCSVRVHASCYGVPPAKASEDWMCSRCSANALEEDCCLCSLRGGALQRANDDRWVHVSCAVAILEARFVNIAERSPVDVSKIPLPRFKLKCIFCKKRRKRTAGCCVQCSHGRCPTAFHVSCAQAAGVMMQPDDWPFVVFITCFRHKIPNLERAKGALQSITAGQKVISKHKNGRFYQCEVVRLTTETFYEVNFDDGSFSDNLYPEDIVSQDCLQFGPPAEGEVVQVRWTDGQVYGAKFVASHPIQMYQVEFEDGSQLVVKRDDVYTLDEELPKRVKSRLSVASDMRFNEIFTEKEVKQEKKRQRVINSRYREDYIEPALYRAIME
# Experiment: qHTS Assay for Inhibitors of JMJD2A-Tudor Domain; note: nearly all actives have a fitted effect of over 50% in size
# Details: AlphaScreen JMJD2A-Tudor / H3K4me3 peptide binding; activity change, negative = inhibition: at 114 µM (top of the series)
# % is set by controls: 0 for no effect and ±100 for the full control effect; potency is the fitted concentration of half-maximal effect; tags give direction and shape of the fitted curve.
Structure (SMILES),"activity change, negative = inhibition",Potency
O=C(NCc1ccc(F)cc1)c1ccc(CS(=O)Cc2ccc(Cl)cc2)o1 (centres undefined),inactive: -3.3%,–
C/C(=N\NC(=O)c1cc(O)ccc1O)c1cccc(NC(=O)c2ccc(Cl)cc2)c1,–,"inconclusive: 44.7 µM [inhibitor, partial curve]"
O=C(O)C1=C[C@H](c2cccs2)C[C@H](OCCCCO)O1,–,"inconclusive: 89.1 µM [inhibitor, partial curve]"
Cc1cccn2c(=O)c3cc(C(=O)NCc4cccnc4)c(=N)n(CC4CCCO4)c3nc12 (centres undefined),inactive: -10.9%,–
COc1ccc(NC(=O)c2c3c(nc4ccccc24)CCN(Cc2ccccc2)C3)c(OC)c1,–,"inconclusive: 44.7 µM [inhibitor, partial curve]"
C(=N\N1CCOCC1)/c1cn(-c2ccccc2)nc1-c1ccccc1,–,"inconclusive: 63.1 µM [inhibitor, partial curve, poor fit]"
CN(C)C(CNC(=O)c1ccc(OCc2cn3ccccc3n2)cc1)c1ccco1 (centres undefined),–,"inconclusive: 35.5 µM [inhibitor, partial curve]"
Cc1ccc(N=Cc2nc(-c3ccco3)oc2O)cc1,–,"inconclusive: 63.1 µM [inhibitor, partial curve]"
CCOc1cc(N2CCOCC2)c(OCC)cc1NC1=NCCCCC1,–,"inconclusive: 89.1 µM [inhibitor, partial curve]"
COc1cc(/C=C(\C#N)c2nc(-c3cc4ccccc4oc3=O)cs2)ccc1O,inactive: -27.1%,–
Clc1ccccc1CSc1nnc(-c2ccco2)c(-c2ccco2)n1,–,active: 22.4 µM
CCOC(=O)C1=C(O)/C(=C/c2ccc(-c3ccccc3C(=O)O)o2)SC1=Nc1ccc(OC)cc1,inactive: -23.4%,–
CC1CCN(c2ccc(C(=O)Nc3ccc4c(c3)OCO4)cc2[N+](=O)[O-])CC1,–,"inconclusive: 12.6 µM [inhibitor, full curve]"
CN1CCc2c(sc3c2C(=O)NC(/C=C/c2ccco2)N3)C1 (centres undefined),–,"inconclusive: 56.2 µM [inhibitor, partial curve]"
COc1ccc(-c2nc(CN3CCN(Cc4cccc(F)c4)CC3)c(C)o2)cc1,–,"inconclusive: 56.2 µM [inhibitor, partial curve]"
COc1ccc(-c2csc(N3CCN(Cc4ccc5c(c4)OCO5)CC3)n2)cc1,–,"inconclusive: 44.7 µM [inhibitor, partial curve]"
Cc1nc(SCC(N)=O)c([N+](=O)[O-])[nH]1,–,active: 39.8 µM
O=C(CN1CCOC1=O)N1CCCC(N2CCN(c3cccc(C(F)(F)F)c3)CC2)C1 (centres undefined),inactive: -18.4%,–
CCN(c1ccccc1)S(=O)(=O)c1ccc(Cl)c(NC(=O)CN(C)C2CCN(C)CC2)c1,–,"inconclusive: 0.355 µM [inhibitor, full curve, poor fit]"
NS(=O)(=O)c1ccc(N=Nc2ccc(=O)[nH]c2O)cc1,–,active: 35.5 µM
O=C(Nc1cc(Cl)ccc1N1CCCC1)C1=NN(c2ccccc2)C(=O)CC1,–,"inconclusive: 11.2 µM [inhibitor, full curve]"
CCOc1ccc(Nc2nc(C)c(NC(=O)c3ccc(C)cc3)c(Nc3ccc(OCC)cc3)n2)cc1,–,"inconclusive: 10 µM [inhibitor, full curve, poor fit]"
O=C(COC(=O)c1ccc(-c2ccc([N+](=O)[O-])cc2)o1)NC(=O)NC12CC3CC(CC(C3)C1)C2,–,"inconclusive: 39.8 µM [inhibitor, partial curve]"

Structure (SMILES),"activity change, negative = inhibition",Potency
O=C(NC(Cc1c[nH]c2ccccc12)C(=O)N1CCOCC1)c1cccs1 (centres undefined),–,"inconclusive: 4.47 µM [inhibitor, single point]"
CCN1CCN(c2ncc3c(n2)CCN(Cc2sccc2C)C3)CC1,–,"inconclusive: 79.4 µM [inhibitor, single point]"
Cc1ccc2nc(-c3cccc(-c4cccc(Cl)c4)c3)c(NCc3ccccc3)n2c1,–,"inconclusive: 39.8 µM [inhibitor, partial curve]"
Cc1ccccc1Cc1n[nH]c(=S)n1N,–,active: 2.82 µM
Cc1cc(C)c2cc(C#N)c(N3CCCC3)nc2c1,inactive: 38.9% [at 11.4 µM],–
CCOC(=O)CC1=C(C(=O)OCC)C(c2cccnc2)C(C#N)=C(N)O1 (centres undefined),inactive: -5.76%,–
O=c1[nH]c(SCc2n[nH]c(=S)n2-c2ccccc2)nc2sc3c(c12)CCC3,–,active: 56.2 µM
CN(C)c1ccc(/C=C2\CCCCC2=O)cc1,–,"inconclusive: 50.1 µM [inhibitor, partial curve]"
Cc1cc(C)n2nc(CC(=O)NCc3ccc(F)cc3)nc2n1,–,active: 70.8 µM
CCOc1ccc(-c2[nH]ncc2-c2ccc(OC)c(OC)c2)c(O)c1,–,"inconclusive: 56.2 µM [inhibitor, partial curve]"
CC(C)NS(=O)(=O)c1ccc(NCCCn2ccnc2)c([N+](=O)[O-])c1,inactive: -20.8%,–
Cc1ccccc1NC(=O)c1c(NC(=O)c2ccncc2)sc2c1CCC(C(C)(C)C)C2 (centres undefined),–,"inconclusive: 79.4 µM [inhibitor, single point]"
Cc1ccc(-c2csc(NC(=O)c3c(C)noc3C)n2)s1,–,"inconclusive: 50.1 µM [inhibitor, partial curve]"
CC1CCN(S(=O)(=O)c2ccc(C(=O)Nc3nc4ccc(F)cc4s3)cc2)CC1,inactive: -5.84%,–
COc1ccccc1N1CCN(Cc2nc(-c3ccc(F)cc3)oc2C)CC1,–,"inconclusive: 89.1 µM [inhibitor, partial curve, poor fit]"
Cc1ccc(NC(=O)c2cncc(Br)c2)cc1S(=O)(=O)N(C)C,–,active: 12.6 µM
COc1cc(-c2nc(-c3ccccc3)c(-c3cc([N+](=O)[O-])ccc3C)[nH]2)cc(OC)c1OC,–,"inconclusive: 11.2 µM [inhibitor, full curve]"
COC(=O)Cc1cc(=O)[nH]c(/N=C(\N)Nc2ccc(C)cc2)n1,–,"inconclusive: 89.1 µM [inhibitor, single point]"
Cc1nc2cc(OCc3cc(C(=O)NC(C)c4cnn(C)c4)no3)ccc2s1 (centres undefined),inactive: 2.78%,–
CS(=O)(=O)c1nc(S(=O)(=O)c2ccc(Cl)cc2)c(N2CCOCC2)s1,–,"inconclusive: 22.4 µM [inhibitor, partial curve]"
CC1=NOC(=O)/C1=C/c1ccc(O)cc1,–,active: 15.8 µM
COc1cccc(C2C(C(=O)c3cc4ccccc4o3)=C(O)C(=O)N2c2cc(C)on2)c1OC (centres undefined),–,"inconclusive: 79.4 µM [inhibitor, single point]"
COc1ccc2[nH]cc(CCNC(=O)Nc3cccc(F)c3)c2c1,–,"inconclusive: 50.1 µM [inhibitor, partial curve]"

Structure (SMILES),"activity change, negative = inhibition",Potency
CCOC(=O)C1CCN(C(=O)COC(=O)CSc2ccc([N+](=O)[O-])cc2)CC1,inactive: -28.3%,–
Cc1c(CCC(=O)O)c(=O)oc2cc3occ(-c4ccc(F)cc4)c3cc12,inactive: -6.43%,–
CCC(C)NCCOCCOc1ccc(C)cc1Br (centres undefined),–,active: 2.51 µM
CC(Nc1nc(-c2ccc(F)cc2)cs1)c1nc2cc(Cl)c(N3CCCCC3)cc2n1CCCO (centres undefined),–,"inconclusive: 63.1 µM [inhibitor, partial curve]"
COc1ccc(Nc2ncnc3c2c(-c2ccccc2)cn3-c2ccc(C)c(Cl)c2)cc1OC,–,"inconclusive: 44.7 µM [inhibitor, partial curve]"
O=C(COC(=O)c1ccccn1)c1ccc([N+](=O)[O-])cc1,–,active: 25.1 µM
O=C(C1=C(O)C(=O)N(c2ncccn2)C1c1cccs1)c1ccco1 (centres undefined),–,active: 20 µM
Cc1ccc2nc(-c3cc(N)cc(N)c3)oc2c1,–,"inconclusive: 56.2 µM [inhibitor, partial curve]"
CC1(CCc2ccccc2)NC(=O)N(CC(=O)N2CCCCCC2)C1=O (centres undefined),inactive: -11.7%,–
CC1=C(C(N)=O)C(c2ccco2)C(C(N)=O)=C(C)N1,inactive: -1.58%,–
CCOc1ccc(C2C(C(=O)OC)=C(C)NC3=C2C(=O)c2ccccc23)cc1OC (centres undefined),–,"inconclusive: 11.2 µM [inhibitor, full curve]"
CCc1ccc(NC(=O)C2CCCN(c3nn4cc(-c5ccc(OC)cc5)nc4s3)C2)cc1 (centres undefined),inactive: -10.6%,–
CCCS(=O)(=O)N1CCC(C(=O)NCCCN(CC)c2cccc(C)c2)CC1,inactive: -9.42%,–
O=C(NCC(c1ccc2c(c1)OCO2)N1CCN(c2ccc(F)cc2)CC1)c1cccc([N+](=O)[O-])c1 (centres undefined),–,"inconclusive: 25.1 µM [inhibitor, full curve]"
COc1ccc(OCc2ccc(-c3nc(C#N)c(NCc4ccccc4)o3)o2)cc1,–,"inconclusive: 28.2 µM [inhibitor, partial curve]"
CC1OC(OCC2OC(Oc3c(-c4ccc(O)cc4)oc4cc(O)cc(O)c4c3=O)C(O)C(O)C2O)C(O)C(O)C1O (centres undefined),–,"inconclusive: 56.2 µM [inhibitor, partial curve]"
COc1ccc(CCNc2cc(N3CCN(C(=O)c4ccccc4OC)CC3)ccc2[N+](=O)[O-])cc1OC,–,"inconclusive: 3.55 µM [inhibitor, full curve, poor fit]"
COc1cc2c(cc1OC)C(c1ccc(Cl)cc1)CC(=O)N2 (centres undefined),–,"inconclusive: 56.2 µM [inhibitor, partial curve, poor fit]"
Cc1nn(C)c2c1c(C(F)(F)F)cc(=O)n2C(C)C(=O)NCCc1ccc(Cl)cc1 (centres undefined),inactive: -18.7%,–
Cc1cc(OCc2ccc(C(=O)NN=C3CCCC3)cc2)ccc1Cl,inactive: -11.9%,–
CCN(CC)C(=O)Oc1ccc2c(c1)O/C(=C\c1ccco1)C2=O,–,"inconclusive: 35.5 µM [inhibitor, partial curve]"
COc1cccc2cc(C(=O)C3=C(O)C(=O)N(CCN4CCOCC4)C3c3ccc(Cl)cc3)oc12 (centres undefined),inactive: -24.9%,–
Cc1ccccc1-c1nc(SCC(=O)NCC2CCCO2)c2c(=O)n(C)c(=O)n(C)c2n1 (centres undefined),inactive: -11.4%,–
